Values joined by “and” are separate entries in the source; they are usually repeats but may differ in a detail not shown here. Identical values can stand only once. The whole screen tested about 48,000 compounds, of which about 1,200 (2.5%) were called active. About 2% were inconclusive and are not listed.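 The calls were made as follows: active = activation of at least 60% and not above a set upper limit (about 1 call in 100 departs from these limits); inconclusive = activation of 40% to 60%, or above that upper limit; inactive = activation under 40%.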 This is one part of the list.

Sequence of UniProt O75388 (O75388 whole entry, looked up, the tested form may be a part): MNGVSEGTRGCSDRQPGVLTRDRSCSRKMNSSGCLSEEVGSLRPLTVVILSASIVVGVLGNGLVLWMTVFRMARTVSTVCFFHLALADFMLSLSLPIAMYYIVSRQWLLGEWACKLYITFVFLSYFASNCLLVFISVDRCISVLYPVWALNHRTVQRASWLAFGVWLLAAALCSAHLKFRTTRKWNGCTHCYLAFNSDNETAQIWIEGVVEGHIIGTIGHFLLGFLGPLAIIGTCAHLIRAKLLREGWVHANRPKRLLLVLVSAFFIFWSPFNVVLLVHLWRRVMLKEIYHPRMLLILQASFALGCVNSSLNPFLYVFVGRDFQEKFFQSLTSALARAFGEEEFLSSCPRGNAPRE

In the experiment the target is Probable G-protein coupled receptor 32 (Homo sapiens) (UniProt O75388). In words: qHTS for Agonists of Human Resolvin D1 Receptor DRV1. Also: 0% is about no effect. The following applies: CHO-K1 GPR32 beta-arrestin PathHunter luminescence, 90 min; at 76.9 µM; active compounds read high; zero percent set by DMSO-only wells. A digest of the protocol:
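Agonism was scored by beta-Gal fragment complementation (chemiluminescent read, 1 h detection at ambient temperature) reporting beta-arrestin binding to GPR32 in engineered CHO-K1 cells. Compound treatment lasted 90 min at 37 C, normalized to a DMSO basal control.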
In general terms: In qHTS, concentration-response curves come from the screen itself.
`COc1ccc(N2CCN(C(=O)CN3C(=O)COc4ccc(S(=O)(=O)N5CCC(C)CC5)cc43)CC2)cc1`: the activation is inactive: -7.18%.

In the case of `COc1ccc(NC(=O)c2oc3ccccc3c2NC(=O)Cc2coc3ccc(C)cc23)cc1`, the activation was inactive: -3.23%. Under `Cc1ccc2nc(-c3ccc(C)o3)c(Nc3ccc4c(c3)OCCO4)n2c1` stands inactive: -14.5%; under `CCS(=O)(=O)c1oc(-c2ccc(F)cc2)nc1S(=O)(=O)c1ccccc1`, inactive: -18.2%; under `O=C(CSc1nc2ncccc2o1)Nc1cccc(C(F)(F)F)c1`, inactive: -12.6%. As to `CCCCN(CC)C(=O)c1nn(-c2ccc(OC)cc2)c(=O)c2c1c1ccccc1n2C`, the activation is inactive: -21.6%. For the compound `COc1ccc(OC)c(CNC(=O)c2ccc3c(c2)c(C)c(C)n3C)c1`, the activation was inactive: -24.3%. Under `Cc1ccc(C)c(N2CCN(C(=O)c3cc4c(=O)oc5ccccc5c4s3)CC2)c1` stands inactive: 4.56%.

`O=C(Cn1c(=O)n(-c2ccccc2)c(=O)c2ccc(C(=O)NCc3ccc4c(c3)OCO4)cc21)Nc1ccc(Br)cc1`: the activation was inactive: -9.85%. For the compound `CCOc1cc(CNC(=O)c2ccc3nc(C(C)C)oc3c2)cc(OCC)c1OCC`, the activation was inactive: -0.746%. With `COc1ccc(N2CCN(S(=O)(=O)CCNC(=O)Cc3ccc(OC)c(OC)c3)CC2)cc1`, the activation is inactive: -9.74%. Under `Cc1nc(SCC(=O)Nc2nsc(-c3ccc(C(C)(C)C)cc3)n2)c2c3c(sc2n1)CCCC3` stands inactive: -28.9%; under `CCN(C(=O)CSc1nc(-c2ccccc2)no1)c1ccccc1`, inactive: 2.26%. On to `Nc1ncnc2c1ncn2[C@@H]1O[C@H](CO)[C@@H](O)[C@H]1O`, for which the activation was inactive: 2.26% and inactive: 3.6%.

Consider `COC(=O)c1ccc(NC(=O)CCc2c(C)nc3c(c(C)nn3C(C)(C)C)c2C)cc1`, for which the activation was inactive: -3.1%. As to `Cc1ccc2occ(-c3cc(-c4ccc(F)cc4)nc4c3COc3ccc(F)cc3-4)c(=O)c2c1`, the activation is inactive: 18.3%. Under `Cc1nn(-c2ccccc2)c(C)c1/C=N/N1CCN(Cc2ccccc2)CC1` stands inactive: -1.83%. Turning to `C=C1C(=C/C=C2\CCC[C@]3(C)[C@@H]([C@H](C)/C=C/[C@@H](O)C4CC4)CC[C@@H]23)C[C@@H](O)C[C@@H]1O`, the activation is active: 107%. In the case of `Cc1ccccc1CSc1nc(-c2cccc(F)c2)nc2c1Cc1c(CO)cnc(C)c1O2`, the activation is inactive: 28.6%.

With `CN(C)C(=O)c1ccc2c(c1)N(CC(=O)NCc1ccccc1Cl)C(=O)C1CCCCN21` (stereo unspecified), the activation is inactive: -14.2%. Consider `COc1ccc(OC)c(CNC(=O)c2nn(C)c3c2CS(=O)(=O)c2ccccc2-3)c1`, for which the activation is inactive: -5.29%. Under `CCCN1CCN(CC2=C(C(=O)OCC)C(c3ccc(OC(C)C)cc3)NC(=O)N2)CC1` (stereo unspecified) stands inactive: -0.462%; under `COc1ccccc1-c1c(C)nn2c(N3CCN(c4ccccc4)CC3)cc(C)nc12`, inactive: -12.5%. On to `CCOc1ccc(-c2nc(CSCC(=O)NCCc3ccc(OCC)c(OCC)c3)c(C)o2)cc1`, for which the activation was inactive: 2.48%. Turning to `CCn1c(=O)c(=O)n(CC)c2cc(N3CCCCC3)c(NC(=O)c3ccccc3OC)cc21`, the activation is inactive: 11.7%. Under `CSc1nc2c(sc3ccccc32)c(=O)n1Cc1ccc(C)cc1` stands inactive: -11.8%. Under `O=C(NCCc1ccc(Cl)cc1)C(=O)NCC(c1cccs1)S(=O)(=O)c1cccs1` (stereo unspecified) stands inactive: -1.57%. Under `COc1ccc(OC)c(CNC(=O)CN2N=C(c3ccc(Cl)cc3)CCC2=O)c1` stands inactive: -20%; under `CCCOC1(C(F)(F)F)NC(=O)N(c2cccc(Cl)c2)C1=O` (stereo unspecified), inactive: -1.65%; under `C=Cc1ccc(Cn2c(C(=O)O)c(CNC3CCCCC3)c3ccc(OC)cc32)cc1`, inactive: 22.7%. Take `COc1cccc(CNC(=O)C(=O)NCC(c2ccc3c(c2)OCO3)N2CCOCC2)c1` (stereo unspecified): the activation is inactive: -24.9%. Under `CCC(C)NC(=O)CSc1c2c(nc3cc(Cl)ccc13)CCCC2` (stereo unspecified) stands inactive: 2.26%; under `O=C(Nc1ccc2nc(SCC(=O)N3CCOCC3)sc2c1)c1ccc(Br)cc1`, inactive: 15%.

For the compound `COc1ccc(C(=O)Nc2cc(-c3nc4ccccc4s3)ccc2OC)cc1`, the activation was inactive: -23.3%. Under `CCOC(=O)c1ccccc1NC(=O)Nc1cc2c(cc1N1CCCC1)n(C)c(=O)n2C` stands inactive: -2.41%; under `CCOc1ccc(NC(=O)CSc2nnc(CNC(=O)C34CC5CC(CC(C5)C3)C4)n2CC)cc1`, inactive: 13.3%. In the case of `COc1ccc(-n2nc3cc(C)c(NC(=O)Cc4ccc(Cl)cc4)cc3n2)cc1`, the activation is inactive: -1.07%. Under `Cc1cc2oc(C(=O)Nc3cccc(-c4nc5ccccc5o4)c3)c(C)c2cc1C` stands inactive: 0.485%; under `CCc1ccc(NC(=O)CSc2nc(-c3cccc(OC)c3)nc3c2Cc2c(CO)cnc(C)c2O3)cc1`, inactive: -4%; under `CC(Oc1ccccc1)C(=O)Nc1ccccc1C(=O)OCc1cc(=O)n2nc(C(C)C)sc2n1` (stereo unspecified), inactive: -7.33%.

With `CCCN1CN=C(NS(=O)(=O)c2ccc(NC(C)=O)cc2)NC1`, the activation is inactive: 7.07%.

Turning to `O=C(NCCc1ccccc1)c1ccc(Cn2c(SCc3ccccc3F)nc3cccnc32)cc1`, the activation is inactive: -22.7%.

Regarding `O=C(CSc1nc(=O)n(Cc2ccncc2)c2c1CCC2)Nc1ccc(F)cc1F`, the activation is inactive: -8.38%. Turning to `COc1ccc(-c2noc(-c3ccc(N4CCN(c5ccccc5OC)CC4)c([N+](=O)[O-])c3)n2)cc1`, the activation is inactive: 37.6%. With `CCCC12CN3CC(CCC)(CN(C1)C3c1ccc(OC(C)C)cc1)C2=O` (stereo unspecified), the activation was inactive: -4.54%. For the compound `COc1cccc(Cn2c(C)c(CNC3CCCCC3)c(C(=O)O)c2C)c1`, the activation is inactive: -8.95%. On to `COc1cc(C(=O)N(Cc2ccc(N(C)C)cc2)CC2CCCO2)cc(OC)c1OC` (stereo unspecified), for which the activation was inactive: -13.3%.

As to `Cc1c(C(=O)N(C)C)sc2c1c(=O)n(-c1ccc(Cl)c(Cl)c1)c(=O)n2CC(=O)N1CCCCC1C` (stereo unspecified), the activation was inactive: -15.8%. For the compound `CCCc1cc(=O)[nH]c(Nc2cc(C)cc(C)c2)n1`, the activation is inactive: 6.32%. Under `Cc1ccc(Cl)cc1N1CCN(C(=O)CSc2cc(=O)n(C)c3ccccc23)CC1` stands inactive: -1.06%; under `CC1=C(C(=O)Nc2cc(Cl)ccc2C)C(c2sccc2C)n2ncnc2N1` (stereo unspecified), inactive: -17.9%; under `O=C(Nc1nc2ccc(F)cc2s1)c1nc(S(=O)(=O)Cc2ccccc2F)ncc1Cl`, active: 105%. Under `Cc1cc(C)c(NC(=O)Cn2c(=O)n(CCC(=O)NCc3ccccc3Cl)c(=O)c3sccc32)c(C)c1` stands inactive: 26%; under `O=C(CSc1cn(CCNC(=O)c2cccc(C(F)(F)F)c2)c2ccccc12)Nc1ccc2c(c1)OCCO2`, active: 112%. For the compound `CC(C)(C)c1ccc2c(c1)N(CC(=O)NCCCN1CCN(c3ccccc3F)CC1)C(=O)CO2`, the activation is inactive: -14.4%.

As to `CSc1ncc(C(=O)NCc2ccc(C)cc2)c(C)n1`, the activation is inactive: 2.64%. Under `COc1ccc(C(=O)Nc2ccc3nc(SCC(=O)N(C)c4ccccc4)sc3c2)cc1` stands inactive: -0.272%; under `CC(C)N(C(=O)Cn1cc(S(=O)(=O)Cc2ccc(Br)cc2)c2ccccc21)C(C)C`, inactive: -22%. Under `CN(C)C(=S)SC(=S)N(C)C` stands inactive: -15%; under `CC1CCN(S(=O)(=O)c2ccc3c(c2)N(CC(=O)NCCCN2CCCCC2)C(=O)CS3)CC1`, inactive: -14.4%. Under `COc1ccc(NC2=C(c3ccccc3)C(=O)c3ccccc32)cc1Cl` stands inactive: 25%; under `Cc1ccc(CNC(=O)c2cc(-c3ccc(C)cc3)nc3n[nH]c(-c4cccc([N+](=O)[O-])c4)c23)cc1`, inactive: 0.0923%; under `CCOc1ccc(S(=O)(=O)NCCc2c(C)[nH]c3c(Cl)cccc23)cc1C`, inactive: 24.8%.

Turning to `Cc1c(C(=O)Nc2ccc(F)c(C(F)(F)F)c2)sc2nc(-c3ccccc3)cn12`, the activation is inactive: -14.4%.

For the compound `CC(=O)Nc1ccc(Nc2ncnc3c2cnn3C)cc1`, the activation was inactive: 14.2%. Under `CCCN(CCC)C(=O)Cn1c(=O)n(CCCCCC(=O)NCc2ccc3c(c2)OCO3)c(=O)c2sccc21` stands inactive: -9.9%.

As to `CCOc1ccccc1CNC(=O)c1oc2c(c1C)-c1[nH]ncc1CC2`, the activation was inactive: -16.9%. Take `CC1CCN(c2ncnc3c2c(-c2ccccc2)cn3-c2ccc(Br)cc2)CC1`: the activation is inactive: -0.493%. Under `COc1ccccc1-c1noc(CCCC(=O)Nc2cccc(C(F)(F)F)c2)n1` stands inactive: -5.66%. Under `Cc1ccc(C)n1-c1nnc(N2CCCC(C(=O)Nc3ccccc3Br)C2)s1` (stereo unspecified) stands inactive: -24.1%; under `CCOC(=O)c1c(NC(=O)c2cc(OC)c(OC)c(OC)c2)sc2c1CCCC2`, inactive: -4.96%. Under `O=C(CN1C(=O)C2(SCC(=O)N2c2cccc(Cl)c2)c2ccccc21)NCc1ccccc1` (stereo unspecified) stands inactive: -10.9%; under `COc1ccc(NC(=O)CCCn2c(=O)c3cccn3c3cccnc32)cc1Cl`, inactive: -8.77%. `CC(C)(C)c1ccc(OCC(=O)NCC2(N3CCOCC3)CCCCC2)cc1`: the activation is inactive: -20.8%.

As for `C[n+]1cc2c3c(ccc2c2ccc4cc5c(cc4c21)OCO5)OCO3`, the activation is inactive: 27.1%. As to `COc1ccc(-c2cn3nc(N4CCC(C(=O)Nc5cc(Cl)ccc5C)CC4)sc3n2)cc1`, the activation is inactive: 4.87%. Under `COc1ccccc1-c1cc2nc(C)c(CCC(=O)NCCc3cccc(C)c3)c(C)n2n1` stands inactive: -2.37%. Under `Cc1ccc(NC(=O)Cn2cnc3onc(-c4ccc(F)cc4)c3c2=O)c(Cl)c1` stands inactive: -12.6%. Under `Cc1ccc(NC(=O)c2cc3ccccn3n2)cc1F` stands inactive: 25.3%; under `O=C(CCCCCn1c(=O)c2sccc2n(CC(=O)Nc2cc(C(F)(F)F)ccc2Cl)c1=O)NCc1ccccc1Cl`, inactive: -25.1%; under `CCc1cccc(-n2c(=O)c3cccnc3n2CC(=O)NCc2ccc(C)cc2)c1`, inactive: -2.46%.
